Some of the results follow.
system: PfHDP1 homeodomain (GST-tagged); assay: gcPBM binding intensity (ln(normalized median fluorescence intensity)); higher = stronger DNA binding
How it was run: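 Plasmodium falciparum DNA-binding domains carrying a GST tag were expressed in E. coli and applied for 1 h, at about 25 μg on average, to an Agilent 4 × 180k array. The array held primer-extended double-stranded 36-bp intergenic genomic probes together with negative controls, and binding took place in 1× PBS with 1% milk, 0.2 mg/ml BSA, 0.5% salmon testes DNA and 0.03% Triton X-100. An Alexa488 anti-GST antibody detected bound protein, and the array was scanned at 488 nm. Binding intensity is taken as the highest Masliner-normalised natural-log median intensity across replicate spots of either probe orientation.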

In order of falling “gcPBM binding intensity (ln)” value:
1. AACATATAAAAATGTGCACACACACCCATATATATA [CACACA_site1525]  10.7
2. TAAAATAAAAATATAGTGCACAGATTTTGATATTTT [GTGCAC_site9696]  10.4
3. TAATATAATATATGCACACAAATATGTATTTATGTG [CACACA_site5210]  10.1
4. TTTTTTTTTAAGTTTGCACACATGGAAGACAAAAAT [CACACA_site2505]  9.98
5. TTTCAAAAAAATAGCTATATTTATATTAATGCACGA [TGCATGCA_negctrl_site63]  9.84
6. AACACACACATATATATATATATATATATATATATA [GTGCAC_negctrl_site573]  9.67
7. TTTTTTACATTCTGCACACAATTTATTTTTTTTTTT [CACACA_site4188]  9.35
8. TTAATCCTTTTTAAAAGTACACATATATATATATAT [XGTACX_site962]  9.32
9. AACATAACAAAAAAAAAAAAAAATATATATATATAT [TGCATGCA_negctrl_site370]  9.27
10. ATATATATATATAGAAGTACTCTTATATATTTTATA [XGTACX_site1384]  9.17
11. TAGAAACTATGTAATGCACACCAAAATAAAATTATT [CACACA_site8578]  9.11
12. GTTTATTAAACATTAGTGCAATTTTAATCCATTCTA  8.94
13. AAAAGAAAATATATGTGTACTAAAATATATATATAT [XGTACX_site3817]  8.77
14. TATATATATATATAATGTACAGAAAAAAAAAAAAAA [XGTACX_site6141]  8.74
15. ATATATATATGTATGTGTCCACAAGGAGATATATAT [XGTACX_site783]  8.61
16. AATTATATACCATGCACACAAATATTCATACAGGAA [CACACA_site4057]  8.36
17. AGTATAAAATAAATGTGTACACAAGAAAATATGTTA [XGTACX_site8381]  8.33
18. ACTTTTATTCGCTTACGTACATATATTATATATTAT [XGTACX_site4459]  7.73
19. ATATTATATATTTGATGTACATTGAATGAGAGAGAA [XGTACX_site3324]  7.34
20. ACATATATATTATAAGCATGCATGAGAAAATTTTTA [TGCATGCA_site1054]  7.29
21. CTTACACCCATATATACACACATGTATATTTTATAT [CACACA_site4462]  7.24
22. TTTAAAGTAATAAAGTGTACAAAAATAAATTCAGCT [XGTACX_site8651]  7.04
23. ATTATAAAGACATATACACACATACGTACATACATA [CACACA_site5893]  7.02
24. AGTAAATAATAGATCGCATGTAATAACTAGTAGGAA [TGCATGCA_site948]  7
25. TTGAACCCCACTAACACACACACGCACGCTCAGAAA [CACACA_site2983]  6.97
26. ATATTAATTATAACTTGTACGTAAAAGGAAAACAAT [XGTACX_site3269]  6.96
27. AATTGCTTCAAAATTAAACACACACTAATAAAAAAA [CACACA_site8855]  6.85
28. ATAATAAATGATAGCACACATATGTACATAAATACA [CACACA_site4634]  6.83
29. AAAGGTGTATATAATACACACGTGTGATTAAAATTG [CACACA_site8104]  6.8
30. AAAGGATATAATACCATACACACATTTATAAAATAA [CACACA_site1931]  6.79
31. TACACAAAAATAAACACACACACATATAAATAAATA [CACACA_site6599]  6.79
32. ACAATTGAAGAAATACGTACATAAAGAAAAACTAGT [XGTACX_site820]  6.78
33. AAAAAAAAAAAAAAAACACACATTTGAAGAAAAAAA [CACACA_site7389]  6.75
34. CCACTAAAGGCATATACACACATTTTTTAAATTGCC [CACACA_site2839]  6.73
35. TACTCCTCAATATTATGTACATATAATAGTTATAAA [XGTACX_site8551]  6.73
36. TATATAACTGTCTTCAGTACACAATAAATAAAAATA [XGTACX_site8856]  6.72
37. TATAATGTTGATAATAGTACGTATGAGTTCAAAAAA [XGTACX_site988]  6.69
38. AACAGATAAAAGGGTACACACATATATACCTGTACA [CACACA_site4285]  6.68
39. TTCTTTGTAGTATATTAACACACAACTGTTTATAAT [CACACA_site9305]  6.67
40. ATAATAAACATATATGTACACACATATACATATATA [CACACA_site8924]  6.67
41. ATATATGAAAATATATGTACACAACATATAAAATAG [XGTACX_site5132]  6.63
42. CACATTATGTATCATACACACAAATAGATATATAAC [CACACA_site6434]  6.56
43. AAAATATATCAAAACACACTCACATATAATACTTAC [CACACA_site6031]  6.54
44. TGTATTAAATTTTGAACACACAAAATAAAACATATA [CACACA_site1672]  6.54
45. CAAATTTTTAAAAATGCATGTTCATCCATCCCATAT [TGCATGCA_site467]  6.53
46. TATATACTTATATACTGTACTCATCATCTTTTAAAG [XGTACX_site6099]  6.53
47. TATTTTATATACAGTGGTACTTTTTTTTTTTTTTTT [XGTACX_site2475]  6.51
48. TGTAATACATGTTGTTGTACAATATCTTTAACTTTT [XGTACX_site1219]  6.51
49. AAATCATGTTGAAGGGGTACAAAATATGTAATGTTG [XGTACX_site6222]  6.5
50. TAATATATCTATAATACACACTATTCTAATCACATA [CACACA_site6731]  6.49
51. TGCTATTTCATATTCTGTACTAAAACAAGATAATAA [XGTACX_site3852]  6.48
52. TTTGTATGATCATAAAGTACTAATTTACATTCAGCA [XGTACX_site8596]  6.47
53. AAAAAAAAAAAAAATACACACACATAAAAAAAAAAA [CACACA_site8555]  6.47
54. TCCTTAAAAAAACCTTAACACACATAAACTATAATT [CACACA_site9001]  6.47
55. ATGAATGAATACGTTTTACACACTTGAATATAATTT [CACACA_site8237]  6.46
56. ATATATAAACACTCTTGTACATAATAATGTATATAT [XGTACX_site2451]  6.45
57. TTTTTTTTTTTTTAAACATGCAAAATATATAATTTT [TGCATGCA_site633]  6.44
58. TTTTTTTTTTATGGTACACACACGCGTATGGTTGCA [CACACA_site1876]  6.43
59. GTATATTGTACCATCACACATGTAAAACATAGATGT [CACACA_site5359]  6.43
60. TTTTTAATATTGTATGCATGTCGTAATAAAAAATTT [TGCATGCA_site259]  6.42
61. TTTTCATTCTTATATAAATATTATTTTATATAAAAT [GTGCAC_negctrl_site674]  6.41
62. ATATACTATTAACCACATATGTGTGTTAATTTATAT [GTGCAC_negctrl_site315]  6.41
63. GATATGGAATATATGTGTACATATATATATATTATA [XGTACX_site1724]  6.4
64. AAAAAAAAAAAAAAATCACACACAATATGAATTTAT [CACACA_site8100]  6.4
65. TTTTAAAAAATAAAATATTATTGAAGTAAAATATGA [CACACA_negctrl_site758]  6.38
66. TATAACTATGGGTGTACACATTAATCGTTTTTCTTT [CACACA_site5196]  6.38
67. GTAGAATCAGTATTCACACATAAATGTATCCAAATG [CACACA_site5395]  6.37
68. GAAAAAATAAAATAAAGTACATAACTATAATAAAAA [XGTACX_site4807]  6.34
69. TTATGGAAAAATATAACACACAATGATTTTTTATAA [CACACA_site1831]  6.33
70. AAATAGAGAAATACAAGTACATACTAAACCAATCTA [XGTACX_site2780]  6.3
71. AAAATCACAAGACACACACACACAAAAAAAAAAAAA [CACACA_site6791]  6.29
72. TGTACATTCGGAGTAAAAAAAAATTTATACAATTAC [CACACA_negctrl_site1451]  6.24
73. TACCTACACTTTTGGAGTACAATTAAAAAAAAAAAA [XGTACX_site1403]  6.23
74. AAAAATATATATATATTTCTTCTTTGTTAAAATGTA [CACACA_negctrl_site1459]  6.23
75. CTTTGTGGTATAGATACACACTATATTAAGATGAAC [CACACA_site5215]  6.22
76. TATTGTAAAAAAGCAAAATTTATCACCTCCTTATTT [CACACA_negctrl_site172]  6.18
77. AACCTAAGCATTCTTCAAATTATATATGTAAAATGA [CACACA_negctrl_site261]  6.18
78. TTTTCGCTTTTATAAAATTATATGAAAAAACTAAAA [XGTACX_negctrl_site139]  6.16
79. TATTTCACAAAAAAAAAAAAAAAAAAGAAGCAAAAA [CACACA_negctrl_site1040]  6.13
80. TTTTGGATACTTCATTTGTCCTGTTTTTTTTTTTTA [CACACA_negctrl_site399]  6.11
81. AACTTTGAGACATAGTGTACTTACACAATCTTAATA [XGTACX_site3712]  6.1
82. TATCTTAACAATTAGTGTACAGATAACCAATTAAAA [XGTACX_site3184]  6.09
83. CATATTTGATACAAGTGTACTTTATTTAAAAATTCT [XGTACX_site8408]  6.09
84. ACATTTTTTTTTTTTTTTCTTTTTCTTTTTCTTTTT [CACACA_negctrl_site1295]  6.07
85. CAAATCAAAATTAATTAACACACAATTTTAATATTC [CACACA_site8641]  6.06
86. AAAATATTTTAATGTTGTACATTAATATATTATATA [XGTACX_site2513]  6.03
87. TAATAAAAATAAAATTGTACTAATAACATTTCATTA [XGTACX_site3703]  5.85
88. TCGTATCTATTGAGGGTGCCTCTATAATTGATACAA [GTGCAC_site9636]  5.83

Source: the supplement of paper PMC11417369
